Measurements as given in US11366114B2, “Genetically encoded fluorescent sensors for detecting ligand bias and intracellular signaling through cAMP pathways” (MONTANA MOLECULAR LLC, priority 2013, dated 2022).

B1: Library 4-2 B1: cAMP sensor from shuffled library 4; SEQ ID NO: 4 in Table 3, absent from Table 1 (protein)
chain: MVAAHAAHSSSSAEWIACLDKRPLERSSEDVDIIFTRLKEVKAFEKFHPNLLHQICLCGYYENLEKGITLFRQGDIGTNWYAVLAGSLDVKVSETSSHQDAVTICTLGIGTAFGESILDNTPRHATIVTRESSELLRIEQKDFKALWEKYRQYMAGLLAPPYGVMETGSNNDRIPDKENTPLIEPHVPLRPANTITKVPSEKILRAGKILRNAILSRAPHMIRDRKYHLKTYRQCCVGTELVDWMMQQTPCVHSRTQAVGMWQVLLEDGVLNHVDQEHHFQDKYLFYRFLDDEHEDAPLPTEEEKKECDEELQDTMLLLSQMGPDAHMRMILRKPPGQRTVDDLEIIYEELLHIKALSHLSTTVKRELAGVLIFESHAKGGTVLFNQGEEGTSWYIILKGSVNVVIYGKGVVCTLHEGDDFGKLALVNDAPRAASIVLREDNCHFLRVDKEDFNRILRLVSHNVYIKADKQKNGIKANFKIRHNIEDGGVQLAYHYQQNTPIGDGPVLLPDNHYLSVQSILSKDPNEKRDHMVLLEFVTAAGITLGMDELYKGGTGGSMVSKGEELFTGVVPIQVELDGDVNGHKFSVSGEGEGDATYGKLTLKFICTTGKLPVPWPTLVTTLTYGVQCFSRYPDHMKQHDFFKSAMPEGYIQERTIFFKDDGNYKTRAEVKFEGDTLVNRIELKGIDFKEDGNILGHKLEYNFNNPDVEANTVRLKEHDQDVLVLEKVPAGNRASNQGNSQPQQKYTVMSGTPEKILEHFLETIRLEATLNEATDSVLNDFIMMHCVFMPNTQLCPALVAHYHAQPSQGTEQEKMDYALNNKRRVIRLVLQWAAMYGDLLQEDDVSMAFLEEFYVSVSDDARMIAALKEQLPELEKIVKQISEDAKAPQKKHKVLLQQFNTGDERAQKRQPIRGSDEVLFKVYCMDPTYTTIRVPVATSVKEVISAVADKLGSGEGLIIVKMSSGGEKVVLKPNDVSVFMTLTINGRLFACPREQFDSLTPLPEQEGPTVGTVGTFELMSSKDLAYQMTIYDWELFNCVHELELIYHTFGRHNFKKTTANLDLFLRRFNEIQFWVVTEICLCSQLSKRVQLLKKFIKIAAHCKEYKNLNSFFAIVMGLSNVAVSRLALTWEKLPSKFKKFYAEFESLMDPSRNHRAYRLTVAKLEPPLIPFMPLLIKDMTFTHEGNKTFIDNLVNFEKMRMIANTARTVRYYRSQPFNPDAAQANKNHQDVRSYVRQLNVIDNQRTLSQMSHRLEPRRP
B2: EcpG10 G2: cAMP sensor; SEQID 4 in Table 1, SEQ ID NO: 5 in Table 3 (protein)
chain: MVAAHAAHSSSSAEWIACLDKRPLERSSEDVDIIFTRLKEVKAFEKFHPNLLHQICLCGYYENLEKGITLFRQGDIGTNWYAVLAGSLDVKVSETSSHQDAVTICTLGIGTAFGESILDNTPRHATIVTRESSELLRIEQKDFKALWEKYRQYMAGLLAPPYGVMETGSNNDRIPDKENTPLIEPHVPLRPANTITKVPSEKILRAGKILRNAILSRAPHMIRDRKYHLKTYRQCCVGTELVDWMMQQTPCVHSRTQAVGMWQVLLEDGVLNHVDQEHHFQDKYLFYRFLDDEHEDAPLPTEEEKKECDEELQDTMLLLSQMGPDAHMRMILRKPPGQRTVDDLEIIYEELLHIKALSHLSTTVKRELAGVLIFESHAKGGTVLFNQGEEGTSWYIILKGSVNVVIYGKGVVCTLHEGDDFGKLALVNDAPRAASIVLREDNCHFLRVDKEDFNRILRDVLENVYIKADKQKNGIKANFKIRHNIEDGGVQLAYHYQQNTPIGDGPVLLPDNHYLSVQSILSKDPNEKRDHMVLLEFVTAAGITLGMDELYKGGTGGSMVSKGEELFTGVVPIQVELDGDVNGHKFSVSGEGEGDATYGKLTLKFICTTGKLPVPWPTLVTTLTYGVQCFSRYPDHMKQHDFFKSAMPEGYIQERTIFFKDDGNYKTRAEVKFEGDTLVNRIELKGIDFKEDGNILGHKLEYNTREANTVRLKEHDQDVLVLEKVPAGNRASNQGNSQPQQKYTVMSGTPEKILEHFLETIRLEATLNEATDSVLNDFIMMHCVFMPNTQLCPALVAHYHAQPSQGTEQEKMDYALNNKRRVIRLVLQWAAMYGDLLQEDDVSMAFLEEFYVSVSDDARMIAALKEQLPELEKIVKQISEDAKAPQKKHKVLLQQFNTGDERAQKRQPIRGSDEVLFKVYCMDPTYTTIRVPVATSVKEVISAVADKLGSGEGLIIVKMSSGGEKVVLKPNDVSVFMTLTINGRLFACPREQFDSLTPLPEQEGPTVGTVGTFELMSSKDLAYQMTIYDWELFNCVHELELIYHTFGRHNFKKTTANLDLFLRRFNEIQFWVVTEICLCSQLSKRVQLLKKFIKIAAHCKEYKNLNSFFAIVMGLSNVAVSRLALTWEKLPSKFKKFYAEFESLMDPSRNHRAYRLTVAKLEPPLIPFMPLLIKDMTFTHEGNKTFIDNLVNFEKMRMIANTARTVRYYRSQPFNPDAAQANKNHQDVRSYVRQLNVIDNQRTLSQMSHRLEPRRP
B3: Library 6-2 C1: cAMP sensor with random two-amino-acid linkers, position 10 of Epac2; SEQID 16 in Table 1, SEQ ID NO: 17 in Table 3 (protein)
chain: MVAAHAAHSSSSAEWIACLDKRPLERSSEDVDIIFTRLKEVKAFEKFHPNLLHQICLCGYYENLEKGITLFRQGDIGTNWYAVLAGSLDVKVSETSSHQDAVTICTLGIGTAFGESILDNTPRHATIVTRESSELLRIEQKDFKALWEKYRQYMAGLLAPPYGVMETGSNNDRIPDKENTPLIEPHVPLRPANTITKVPSEKILRAGKILRNAILSRAPHMIRDRKYHLKTYRQCCVGTELVDWMMQQTPCVHSRTQAVGMWQVLLEDGVLNHVDQEHHFQDKYLFYRFLDDEHEDAPLPTEEEKKECDEELQDTMLLLSQMGPDAHMRMILRKPPGQRTVDDLEIIYEELLHIKALSHLSTTVKRELAGVLIFESHAKGGTVLFNQGEEGTSWYIILKGSVNVVIYGKGVVCTLHEGDDFGKLALVNDAPRAASIVLREDNCHFLRVDKEDFNRILRDVEANLENVYIKADKQKNGIKANFKIRHNIEDGGVQLAYHYQQNTPIGDGPVLLPDNHYLSVQSILSKDPNEKRDHMVLLEFVTAAGITLGMDELYKGGTGGSMVSKGEELFTGVVPIQVELDGDVNGHKFSVSGEGEGDATYGKLTLKFICTTGKLPVPWPTLVTTLTYGVQCFSRYPDHMKQHDFFKSAMPEGYIQERTIFFKDDGNYKTRAEVKFEGDTLVNRIELKGIDFKEDGNILGHKLEYNTRTVRLKEHDQDVLVLEKVPAGNRASNQGNSQPQQKYTVMSGTPEKILEHFLETIRLEATLNEATDSVLNDFIMMHCVFMPNTQLCPALVAHYHAQPSQGTEQEKMDYALNNKRRVIRLVLQWAAMYGDLLQEDDVSMAFLEEFYVSVSDDARMIAALKEQLPELEKIVKQISEDAKAPQKKHKVLLQQFNTGDERAQKRQPIRGSDEVLFKVYCMDPTYTTIRVPVATSVKEVISAVADKLGSGEGLIIVKMSSGGEKVVLKPNDVSVFMTLTINGRLFACPREQFDSLTPLPEQEGPTVGTVGTFELMSSKDLAYQMTIYDWELFNCVHELELIYHTFGRHNFKKTTANLDLFLRRFNEIQFWVVTEICLCSQLSKRVQLLKKFIKIAAHCKEYKNLNSFFAIVMGLSNVAVSRLALTWEKLPSKFKKFYAEFESLMDPSRNHRAYRLTVAKLEPPLIPFMPLLIKDMTFTHEGNKTFIDNLVNFEKMRMIANTARTVRYYRSQPFNPDAAQANKNHQDVRSYVRQLNVIDNQRTLSQMSHRLEPRRP

Tested on: cAMP
Assay: Fluorescence response of cAMP sensors to isoproterenol in HEK 293 cells co-expressing the beta adrenergic receptor
Format: cell-based, human
Conditions: for Relative Change in Fluorescence: in response to isoproternol
Method: To test the functionality of these 28 prototype sensors, each construct was co-expressed with the beta adrenergic receptor, which couples to the Gs signaling pathway when activated by isoproteronol, in HEK 293 cells, and the fluorescence measured as described below. Briefly, 96-well glass-bottom plates were coated with Poly-D-Lysine (Fisher Scientific, Pittsburgh, Pa.) and HEK 293 were seeded and cultured in EMEM (ATCC, Manassas, Va.) supplemented with 10% fetal bovine serum and Penicillin-Streptomycin at 37 […] and 30 ng of beta adrenergic receptor per well, using Lipofectamine 2000 Transfection Reagent (Life Technologies, Grand Island, N.Y.) according to the manufacturer's protocol, and incubated for 24-48 hours at 37° C. in 5% CO2.
Prior to screening transfected cells for fluorescence, he EMEM culture medium was removed and 1×DPBS added to each well. A Zeiss Axiovert S100TV inverted microscope equipped with computer controlled excitation/emission filter wheels, shutters, and a Qimaging Retiga Exi CCD camera (Surrey, BC Canada) was used to image cells at 25e A) supplemented with 10% fetal bovine serum and Penicillin-Streptomycin at 37hn filters were used to resolve the green fluorescence from the cAMP sensors. Cells were analyzed for increases or decreases in fluorescence intensity upon addition of isoproternol, DMSO, forskolin and IBMX. To analyze the image stacks, background fluorescence was defined as a region of the image that contained no cells. The average value of this region was subtracted frame by frame from the measurements of the mean pixel values of the fluorescent cells. Fluorescence intensity data was plotted and analyzed with IGOR (Wavemetrics, Oswego, Oreg.).
For transient expression and screening in an automated fluorescence plate reader, HEK 293T cells were cultured in Corning Co-Star Polystyrene 96-well plates coated with Poly-D-Lysine. HEK293T cells were plated at 35,000 cells/well in 100 μl growth medium per well without antibiotics so that the cells would be 90-95% confluent at the time of transfection (approximately 24 hours later). For each transfection (i.e. one well in a 96-well plate), 160 ng of plasmid DNA (120 ng sensor+40 ng receptor) was diluted in […] and then the mixture was replaced with fresh medium. Prior to scanning a plate on the Biotek Synergy Mx, EMEM culture medium was replaced with 250 μl of 1×DPBS per well. Plates were read at 25° C., using monochromators set to 488/20 nm excitation and 530/20 nm emission to resolve the green fluorescence from the cAMP sensor.

Molecule | Relative Change in Fluorescence [%] | change in fluorescence in response to drug (direction not given) [%]
B1 | 61 | –
B2 | 60 | –
B3 | −34 | 30
